According to article PMC5663884, “Compositional and expression analyses of the glideosome during the Plasmodium life cycle reveal an additional myosin light chain required for maximum motility” (The Journal of Biological Chemistry, 2017):
Results are given in words; binding and its absence hold for the method and conditions named. For some assays here: In cells and extracts the contact can be indirect. Some entries that bind do so weakly or less than the wild type. For some assays here: Where a sequence is shown, tags or fusion partners need not be part of it.

Sequences of proteins named here, by UniProt entry; tags and fusion partners are left off.
UniProt Q8I5I8: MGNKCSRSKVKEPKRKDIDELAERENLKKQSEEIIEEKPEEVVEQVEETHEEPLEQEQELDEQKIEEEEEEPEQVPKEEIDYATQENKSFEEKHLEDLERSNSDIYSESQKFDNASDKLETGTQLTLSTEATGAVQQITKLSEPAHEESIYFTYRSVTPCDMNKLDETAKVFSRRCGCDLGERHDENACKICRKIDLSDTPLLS
UniProt Q8I4W8: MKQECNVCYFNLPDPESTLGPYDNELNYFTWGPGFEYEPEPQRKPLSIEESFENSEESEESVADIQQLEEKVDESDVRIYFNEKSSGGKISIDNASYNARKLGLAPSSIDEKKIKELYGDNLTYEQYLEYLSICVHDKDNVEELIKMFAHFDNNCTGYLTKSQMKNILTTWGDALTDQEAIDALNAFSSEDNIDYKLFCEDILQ
UniProt Q8IJM4: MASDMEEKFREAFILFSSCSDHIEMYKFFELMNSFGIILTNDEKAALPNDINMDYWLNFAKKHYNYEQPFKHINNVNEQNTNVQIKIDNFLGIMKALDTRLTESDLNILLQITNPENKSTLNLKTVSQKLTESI

How the values were obtained:
[1] = target: Biotinylated PfMyoA neck peptide 770–787 (P. falciparum) (UniProt Q8IDR3); assay: BLI; both purified
[2] = target: P. falciparum GAP45 tagged internally with GFP (P. falciparum) (UniProt Q8I5I8); assay: co-IP
[3] = target: Recombinant full-length PfMyoA with N-terminal StrepTagII and GFP (Sf21) (P. falciparum) (UniProt Q8IDR3); assay: co-purification of co-expressed proteins (Strep-Tactin affinity, then SEC)
[4] = target: P. falciparum MyoA-GFP (myosin A tagged at its C terminus with GFP, expressed from the endogenous locus) (P. falciparum) (UniProt Q8IDR3); assay: co-IP
[5] = target: T1, P. falciparum MyoB-GFP (P. falciparum) (UniProt Q8I465); assay: co-IP
T1 sequence: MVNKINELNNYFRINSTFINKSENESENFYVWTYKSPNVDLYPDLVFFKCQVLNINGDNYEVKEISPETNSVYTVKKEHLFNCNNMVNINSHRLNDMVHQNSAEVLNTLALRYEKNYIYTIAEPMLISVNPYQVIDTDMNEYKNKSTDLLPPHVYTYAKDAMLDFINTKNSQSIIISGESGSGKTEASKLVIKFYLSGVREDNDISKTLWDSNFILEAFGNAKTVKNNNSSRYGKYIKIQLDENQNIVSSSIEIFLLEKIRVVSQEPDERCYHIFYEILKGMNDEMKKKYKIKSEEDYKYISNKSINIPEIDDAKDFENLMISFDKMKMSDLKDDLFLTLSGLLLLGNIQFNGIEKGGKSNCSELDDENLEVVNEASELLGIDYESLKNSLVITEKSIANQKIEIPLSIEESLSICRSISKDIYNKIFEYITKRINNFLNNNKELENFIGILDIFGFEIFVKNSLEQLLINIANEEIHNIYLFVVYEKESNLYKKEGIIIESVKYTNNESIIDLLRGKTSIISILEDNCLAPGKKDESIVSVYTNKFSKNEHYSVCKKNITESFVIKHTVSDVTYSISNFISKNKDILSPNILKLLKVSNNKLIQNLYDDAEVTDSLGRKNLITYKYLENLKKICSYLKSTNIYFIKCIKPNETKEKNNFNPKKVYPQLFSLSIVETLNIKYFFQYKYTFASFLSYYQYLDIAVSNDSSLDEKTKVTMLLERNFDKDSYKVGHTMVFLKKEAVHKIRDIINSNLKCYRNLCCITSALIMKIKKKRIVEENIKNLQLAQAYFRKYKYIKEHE

[6] = target: Myosin light chain 1, myosin A tail domain–interacting protein (MTIP), endogenous (P. falciparum (endogenous in schizonts and merozoites)) (UniProt Q8I4W8); assay: co-IP; anti-MTIP antibodies on lysates of 3D7 schizonts or merozoites; Western blotting with PfELC-specific antibodies; preimmune antibody as control

Substance	binding [2]	binding [4]	other results
Recombinant His-tagged PfELC (E. coli) (from UniProt Q8IJM4 1-134)	–	–	binding [1]: no binding (tested: 0.04–5 μM PfELC)
Myosin light chain 1, myosin A tail domain–interacting protein (MTIP), endogenous (from UniProt Q8I4W8 1-204)	binds	–	–
Recombinant PfELC with N-terminal hexahistidine tag (Sf21) (from UniProt Q8IJM4 1-134)	–	–	binding [3]: binds
Glideosome-associated protein 45 (GAP45), endogenous (from UniProt Q8I5I8 1-204)	–	binds	–
P. falciparum myosin A (MyoA), untagged, endogenous (from UniProt Q8IDR3 1-818)	binds	–	–
P. falciparum essential light chain (PfELC), endogenous (from UniProt Q8IJM4 1-134)	–	binds	binding [5]: no binding; binding [6]: binds
